From the supplement of paper PMC8291772
± gives the standard error. The list shows a part of the results.

Biological target: terminal deoxynucleotidyl transferase (calf thymus) (UniProt P06526)
Test: TdT poly-dT extension signal (Cy3 hybridisation fluorescence, uncapped minus capped) (fluorescence a.u.); higher = more efficient initiation of TdT extension
Details: initiator chemistry: 2'-O-methyl-RNA, free 3'-OH (5'-tethered via HEG linker)
In short: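 Mono- to pentamer initiators were made by photolithographic in situ synthesis on glass on a hexaethylene glycol linker, each as uncapped and DMTr-dT-capped replicates. Arrays were extended with 0.2 u/μL calf thymus TdT and 100 μM dTTP in TdT buffer plus 0.25 mM CoCl2 at 37 °C for 120 min, hybridized with Cy3-labelled rA18 probe at 4 °C and scanned at 532 nm. Extension signal is mean uncapped minus mean capped (background) fluorescence.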

UniProt P06526, sequence (P06526 whole entry): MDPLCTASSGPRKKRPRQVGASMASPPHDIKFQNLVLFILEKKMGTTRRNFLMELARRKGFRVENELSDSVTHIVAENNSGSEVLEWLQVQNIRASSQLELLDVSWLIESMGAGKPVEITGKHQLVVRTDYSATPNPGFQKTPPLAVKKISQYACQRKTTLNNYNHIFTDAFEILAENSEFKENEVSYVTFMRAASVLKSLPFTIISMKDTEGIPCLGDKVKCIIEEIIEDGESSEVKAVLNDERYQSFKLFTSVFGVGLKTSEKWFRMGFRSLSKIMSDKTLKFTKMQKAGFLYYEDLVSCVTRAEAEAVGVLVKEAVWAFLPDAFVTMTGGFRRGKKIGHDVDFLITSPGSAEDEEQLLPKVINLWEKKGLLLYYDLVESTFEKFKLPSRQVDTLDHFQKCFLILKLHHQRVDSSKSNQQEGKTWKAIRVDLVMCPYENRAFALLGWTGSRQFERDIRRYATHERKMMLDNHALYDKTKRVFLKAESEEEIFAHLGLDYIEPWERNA

Sequence | TdT poly-dT extension signal
ACGAA | 869 ± 62
AGCGA | 556 ± 38
UUAAU | 420 ± 35
CACGC | 1090 ± 67
ACUGU | 377 ± 18
CCGCA | 451 ± 46
CGUAU | 326 ± 32
GGAUU | 273 ± 21
GUUG | 156 ± 11
GUAAU | 383 ± 30
GGGA | 688 ± 52
UAAUG | 230 ± 20
GGUAU | 366 ± 40
ACCC | 408 ± 21
CAUU | 293 ± 19
CAGGA | 655 ± 39
GUGAU | 329 ± 28
UGCAU | 392 ± 22
UGGAG | 365 ± 53
GUCGC | 1070 ± 67
GAUCG | 205 ± 20
GAUUG | 154 ± 14
UUAG | 222 ± 27
UACCU | 308 ± 29

Sequence | TdT poly-dT extension signal
ACUCA | 399 ± 32
CCCCC | 425 ± 34
AUAGG | 266 ± 22
GGACG | 296 ± 31
CGGGU | 522 ± 34
CUAAU | 406 ± 31
AACAC | 819 ± 56
CUGGU | 412 ± 22
AUGGG | 209 ± 17
AGGC | 1000 ± 83
UUGCU | 326 ± 35
AUGUU | 232 ± 12
CAAAC | 962 ± 130
UCUUU | 210 ± 24
UUUAU | 262 ± 11
AUGC | 1000 ± 81
UCCCG | 210 ± 13
CUGC | 1000 ± 130
AAGCC | 654 ± 48
UUCAU | 442 ± 20
CUGUC | 440 ± 40
CAGAG | 471 ± 47
GAAAC | 1000 ± 140
CCGAA | 952 ± 65

Sequence | TdT poly-dT extension signal
AACGC | 975 ± 64
GUCUU | 340 ± 34
UAAAG | 531 ± 53
CGUUC | 353 ± 30
UACAG | 525 ± 27
ACCCU | 321 ± 37
CUCGG | 344 ± 47
CCAAA | 1170 ± 64
CCCU | 310 ± 33
GUUAC | 497 ± 25
AUGUC | 428 ± 44
UAUAC | 496 ± 31
GCAUC | 486 ± 41
CGCUC | 570 ± 40
CCCGC | 1200 ± 97
AUUAA | 529 ± 25
GUCUC | 589 ± 43
GGAAC | 801 ± 70
UUACC | 287 ± 25
ACGGU | 482 ± 34
CGGGG | 299 ± 15
CGAGA | 666 ± 57
AGACA | 389 ± 38
UCAAC | 698 ± 93

Sequence | TdT poly-dT extension signal
CAUCA | 358 ± 63
GUAGA | 712 ± 70
GUUU | 214 ± 20
CACGG | 422 ± 55
CGGGC | 1070 ± 81
GUACC | 398 ± 28
AGGGG | 364 ± 40
CCUGG | 221 ± 18
GUGCA | 383 ± 27
GCAGU | 516 ± 41
GAGAA | 910 ± 76
AAACU | 288 ± 30
UUUUU | 482 ± 25
GACCU | 325 ± 38
GCAGG | 404 ± 44
UGAC | 619 ± 92
ACCCC | 498 ± 27
GACCC | 451 ± 37
UGUAU | 273 ± 33
AUACA | 316 ± 33
CGCCU | 375 ± 17
CAGCG | 334 ± 26
UGCCA | 330 ± 31
AUGGC | 1030 ± 83

Sequence | TdT poly-dT extension signal
AGUUC | 403 ± 30
GAGGC | 1040 ± 84
AGGGA | 636 ± 49
GGGUG | 356 ± 12
AGUUA | 382 ± 20
UUCGC | 1170 ± 79
GUUAG | 258 ± 20
UACCG | 248 ± 33
UGUAA | 515 ± 38
AGAC | 565 ± 55
ACGAC | 610 ± 53
CAUG | 261 ± 26
CUUGU | 405 ± 29
GACAG | 523 ± 35
UUGGC | 900 ± 58
AAUGU | 335 ± 20
CAACU | 313 ± 34
CAAUC | 501 ± 34
GCGCU | 323 ± 25
GUAC | 547 ± 50
CAUCU | 240 ± 15
AUCUA | 549 ± 22
UUAAG | 388 ± 34
AAUC | 379 ± 27

Sequence | TdT poly-dT extension signal
CAAA | 1010 ± 77
UGCCG | 220 ± 14
UGGCG | 298 ± 49
GUGUG | 186 ± 13
UUAUA | 375 ± 34
CUGA | 486 ± 62
AAAGG | 370 ± 28
AAGUG | 222 ± 24
CAAG | 600 ± 36
GCACG | 295 ± 16
UCGCA | 463 ± 31
GCGAU | 449 ± 42
ACUG | 278 ± 17
UCAUC | 439 ± 34
UAUC | 366 ± 18
ACGU | 432 ± 32
GAAUU | 321 ± 24
AAUAU | 312 ± 32
GGUUG | 148 ± 9.2
GGCAA | 925 ± 89
GGCAG | 414 ± 45
AUUCU | 281 ± 19
AACGA | 620 ± 72
GCAG | 492 ± 30

Sequence | TdT poly-dT extension signal
AGAUA | 525 ± 31
CCUU | 343 ± 26
UUGCA | 327 ± 16
GAAUG | 223 ± 21
CGACG | 340 ± 17
CGUGU | 349 ± 21
AAAUG | 230 ± 12
CUGUA | 359 ± 18
GCGUC | 542 ± 34
CGUUU | 232 ± 14
UAAAU | 517 ± 37
AGGAC | 668 ± 50
GGCGA | 646 ± 96
UUAGG | 271 ± 26
AUCCC | 442 ± 30
GGCUC | 639 ± 31
CUUGG | 179 ± 20
GGUGU | 484 ± 37
ACUGC | 922 ± 88
CAUGC | 1140 ± 140
CGAUC | 441 ± 30
CUUU | 233 ± 21
UCAAG | 688 ± 49
GUGU | 411 ± 18

Sequence | TdT poly-dT extension signal
UCUAC | 504 ± 25
GUUGG | 187 ± 14
AUAUU | 250 ± 11
CUGCC | 503 ± 48
CUAUU | 224 ± 30
GAUUC | 423 ± 31
GGGCG | 330 ± 32
UUCCU | 241 ± 17
UGUG | 149 ± 15
AUGUG | 141 ± 13
GCCGC | 999 ± 83
GCACA | 482 ± 81
UUAA | 535 ± 45
CUUAU | 257 ± 25
ACAU | 483 ± 30
CUAAA | 792 ± 51
CAUUA | 375 ± 18
ACCAU | 456 ± 28
UCCU | 351 ± 31
AAUUA | 354 ± 22
AAUUC | 348 ± 32
GGUUC | 426 ± 69
AUCGA | 487 ± 30
GUGCC | 523 ± 29

Sequence | TdT poly-dT extension signal
CUUUG | 145 ± 13
AUUUG | 120 ± 8.5
UACU | 225 ± 13
CCGG | 326 ± 47
UAGAA | 1060 ± 95
GAAGA | 957 ± 160
GCCGA | 606 ± 70
UCUGU | 319 ± 22
UGCCC | 519 ± 28
GAAAG | 560 ± 51
GAAAU | 512 ± 38
GCCUC | 636 ± 30
GCGUG | 298 ± 34
AUCG | 210 ± 18
CAAGU | 608 ± 48
CGCAU | 490 ± 26
ACUUU | 291 ± 24
GUAUG | 157 ± 12
GCGGC | 844 ± 55
UCCGA | 597 ± 38
CGCCC | 432 ± 29
UAGGG | 313 ± 21
CGGCU | 341 ± 24
